# Laboratory results as given in the supplement of paper PMC10126150.
# Sequences with one replicate were seen in a single cluster, so their values are uncertain.
# Test system: ATP
# Assay: switch fluorescence ratio, 500 uM ATP over buffer (Cy3 cluster intensity, sum of 5 cycles each) (fold (ratio)); higher = stronger signal-on switching upon ATP binding; sequences stand for … in TCGTCGGCAGCGTCAGATGTGTATAAGAGACAGTTTTTTTTTTTTTTTTTTTTTTTTT…TC
# Conditions: aptamer strand: ATP DNA aptamer (quencher-CACCTGGGGGAGTATTGCGGAGGAAGG + anchor), 100 nM annealed; ATP concentration: 500 uM; one replicate
# In short: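 After annealing to 100 nM quencher-labelled ATP aptamer, Cy3-labelled switching-strand clusters on a modified Illumina MiSeq flow-cell were imaged in selection buffer. A second image followed after 15 min with 500 uM ATP at 22 °C, and five such buffer/ATP cycles were done, each separated by NaOH stripping and re-annealing. The fluorescence ratio, averaged per switch-domain sequence, is summed target-cycle over summed buffer-cycle Cy3 intensity per cluster, with clusters outside 100-1000 RFU excluded.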
# 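Further: ATP exposure 15 min at 22 °C before imaging.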
row,Sequence,switch fluorescence ratio
1,CCCCCAGGA,1.24
2,CCCCCAGTTT,1.25
3,CCCCCCCCAA,1.38
4,CCCCGACAT,2.78
5,CCCCGGAC,1
6,CCCCGGTCGG,1.15
7,CCCCTATGCT,1.16
8,CCCCTATGTC,1
9,CCCCTATTGG,1.13
10,CCCCTTTTAA,0.995
11,CCCGACCTAT,1.21
12,CCCGACTGCT,1.16
13,CCCGATTTGC,1.13
14,CCCGCAGCGG,1.14
15,CCCGCCGTAA,1.93
16,CCCGCTATTG,1.99
17,CCCGCTTCCG,1.35
18,CCCGGACGTC,1.04
19,CCCGGCAGAC,3.04
20,CCCGGGAACC,0.992
21,CCCGGGAATA,1.02
22,CCCGGGGCGC,0.969
23,CCCGGGTCAA,1.02
24,CCCGGTCCAT,1.04
25,CCCGGTGCTG,1.04

row,Sequence,switch fluorescence ratio
1,CCCGGTTTGT,0.982
2,CCCGTATGTA,1.03
3,CCCGTCGGTT,1.07
4,CCCGTGTGCT,1.06
5,CCCGTGTGGC,1.11
6,CCCGTGTTCT,1.01
7,CCCTATAGCA,1.23
8,CCCTATATCG,0.957
9,CCCTATTAAG,1.02
10,CCCTCAGAGC,1
11,CCCTCTTGCA,1.46
12,CCCTGGTATC,1.12
13,CCCTGGTATG,1.12
14,CCCTGGTTAT,1.03
15,CCCTGTTC,1.01
16,CCCTTAAAGC,0.985
17,CCCTTAGGTA,1.01
18,CCCTTCTGTT,0.965
19,CCCTTTAAG,0.992
20,CCCTTTGTCC,1.07
21,CCGAAGACGC,3.33
22,CCGAAGCCCG,1.95
23,CCGAAGTTTG,1.7
24,CCGACACCGT,1.28
25,CCGACCTATG,1.16

row,Sequence,switch fluorescence ratio
1,CCGACCTGGG,1.16
2,CCGACGATTT,5.09
3,CCGACTAGGA,0.985
4,CCGACTTGTA,1.32
5,CCGAGCGTGG,1.08
6,CCGATAAAC,1.19
7,CCGATCTAAG,1.07
8,CCGATGGGCA,1.08
9,CCGCAACGTT,1.72
10,CCGCAGGGGA,3.89
11,CCGCCCACGA,4.83
12,CCGCCGATTG,2.03
13,CCGCGAAACG,5.67
14,CCGCGCACGG,1.27
15,CCGCGCGAGG,1.12
16,CCGCGCTGCG,1.12
17,CCGCGGAATT,0.98
18,CCGCGGTCGG,1.14
19,CCGCGGTTGG,1.09
20,CCGCTACTTA,4.28
21,CCGCTAGGAG,1
22,CCGCTAGGTA,1.04
23,CCGCTCAAGG,1.19
24,CCGCTGCTCT,2.46
25,CCGGACGAGC,1.25

row,Sequence,switch fluorescence ratio
1,CCGGACTCAA,2.59
2,CCGGACTGAG,1.04
3,CCGGCAGCGC,1.61
4,CCGGCAGTTT,1.13
5,CCGGCCACTT,1.26
6,CCGGCCGGTT,0.992
7,CCGGCCTCGG,1
8,CCGGCGGACT,1.08
9,CCGGGATT,1.04
10,CCGGGCAGTA,1.96
11,CCGGGCCAG,1.08
12,CCGGGCTCAT,1.16
13,CCGGGGCCGA,1.02
14,CCGGGTGAAT,1.02
15,CCGGTAAAGG,1.1
16,CCGGTCAGTC,1.34
17,CCGGTCATGA,0.983
18,CCGGTCCGTG,1.06
19,CCGGTTGCTC,2.08
20,CCGTAAACT,3.26
21,CCGTAAAGCA,1.78
22,CCGTAACATC,3.34
23,CCGTAACTTT,1.15
24,CCGTACAGAT,1.19
25,CCGTACCTTA,1.19

row,Sequence,switch fluorescence ratio
1,CCGTAGATGG,1.85
2,CCGTAGCTTG,3.87
3,CCGTAGGCAT,2.45
4,CCGTCATCTA,1.11
5,CCGTCCGTGT,1.15
6,CCGTCTGAAT,1.06
7,CCGTCTGGTT,1.12
8,CCGTCTTCT,0.984
9,CCGTGACTTG,0.997
10,CCGTGAGGCG,0.959
11,CCGTGGTTGC,0.972
12,CCGTGTCCCC,1.8
13,CCGTTAAATG,1.04
14,CCGTTACTGG,1.06
15,CCGTTAGGG,1.04
16,CCGTTATCAT,0.964
17,CCGTTCTGGT,0.954
18,CCGTTGGAGT,1.04
19,CCGTTTTGGG,0.992
20,CCTAAAAAGT,0.983
21,CCTAAACCAA,1.11
22,CCTAAACTTG,1
23,CCTAAAGCGC,1.16
24,CCTAAAGGGC,1
25,CCTAACGCGG,2.87

row,Sequence,switch fluorescence ratio
1,CCTAACGGAG,1.21
2,CCTAAGATTC,1.05
3,CCTAATATCG,1.03
4,CCTACATGAT,1.15
5,CCTACTACGG,1.11
6,CCTAGACACC,1.01
7,CCTAGATTTA,0.977
8,CCTAGCACAA,3.16
9,CCTAGCGCAT,3.56
10,CCTAGCGCTT,1.75
11,CCTAGGACGT,0.953
12,CCTAGGATGG,1.06
13,CCTAGGCCGG,1
14,CCTAGGGGAT,2.6
15,CCTAGGTGGC,1.64
16,CCTATACAAG,1.02
17,CCTATAGATG,1.04
18,CCTATCAGCT,1.18
19,CCTATGAGAT,1.03
20,CCTCAACATA,3.37
21,CCTCAAGAGA,3.71
22,CCTCACAC,1.21
23,CCTCATTCAA,4.73
24,CCTCGAACAG,1.31
25,CCTCGCCTGG,1.84

row,Sequence,switch fluorescence ratio
1,CCTCGCGGCA,2.33
2,CCTCGGCCGC,3.04
3,CCTCTAGAGG,1.07
4,CCTCTCCGTG,1.77
5,CCTCTTAAGT,1.16
6,CCTCTTATGT,1.04
7,CCTCTTATTG,1.06
8,CCTCTTCGGT,1.1
9,CCTCTTGGTC,1.16
10,CCTGAACTTC,1.04
11,CCTGACCAGG,1.53
12,CCTGAGAATG,1.03
13,CCTGAGCAAT,1.86
14,CCTGAGCATA,3.48
15,CCTGAGGCCA,1.07
16,CCTGATAACT,0.992
17,CCTGATAAGT,0.967
18,CCTGATTACA,1
19,CCTGATTAGA,0.996
20,CCTGATTATC,1.04
21,CCTGCAAAAG,2.84
22,CCTGCGGTG,1.29
23,CCTGCTGTGA,1.19
24,CCTGGACAGT,1
25,CCTGGAGTTT,1.03

row,Sequence,switch fluorescence ratio
1,CCTGGGGCCT,1.03
2,CCTGGTGGCG,0.975
3,CCTGGTGTTC,1.26
4,CCTGGTTCTC,1.07
5,CCTGTAAACA,1.01
6,CCTGTAAGAA,1.05
7,CCTGTCCACT,0.998
8,CCTGTTCCCT,2.15
9,CCTGTTCGAG,0.95
10,CCTGTTGGGC,1.08
11,CCTGTTGTTC,1.05
12,CCTGTTTACC,1.06
13,CCTGTTTCGT,0.954
14,CCTTACAAGC,1.87
15,CCTTACCAGG,2.2
16,CCTTACCTGA,1.08
17,CCTTAGACCT,1.27
18,CCTTATATGT,0.986
19,CCTTATCGCT,1.28
20,CCTTCACTCA,1.3
21,CCTTCCATGT,1.27
22,CCTTGATGCG,0.987
23,CCTTGCCGAC,1.41
24,CCTTGCTGGA,0.987
25,CCTTGGACGC,1.82
